# Measurements from the antibiotic and cytotoxicity screens of Wong et al. (2023).
# Some of the results follow.
# Test system: HepG2
# Assay: cytotoxicity call (relative viability < 0.9)
# Settings: 10 µM
row,SMILES,cytotoxicity call
1,C[C@@H]1CCCCO[C@H](CN(C)C(=O)Nc2cccc3ccccc23)[C@@H](C)CN([C@H](C)CO)C(=O)c2cc(NS(=O)(=O)c3cn(C)cn3)ccc2O1,inactive
2,c1ccc2nc(-c3cn[nH]c3)ccc2c1,inactive
3,C=CCCC(=O)O[C@@H](c1ccccc1)[C@@H](C)N(C)C(=O)[C@H](CC=C)NC(=O)OCC1c2ccccc2-c2ccccc21,inactive
4,CCCCCCCCCCCCC[N+](C)(C)Cc1ccccc1,active
5,C[C@H]1CN([C@@H](C)CO)C(=O)c2cccc(NC(=O)C3CCOCC3)c2O[C@@H]1CN(C)Cc1ccc(Oc2ccccc2)cc1,inactive
6,C[C@H]1CCCCO[C@@H](CN(C)C(=O)NC2CCCCC2)[C@@H](C)CN([C@@H](C)CO)C(=O)c2cc(NS(=O)(=O)c3ccc(F)cc3)ccc2O1,inactive
7,CC[C@H](C)[C@H](NC(=O)[C@H](Cc1ccc(O)cc1)NC(=O)[C@@H](NC(=O)[C@@H](CCCNC(=N)N)NC(=O)[C@@H](N)CC(=O)O)C(C)C)C(=O)N[C@@H](Cc1cnc[nH]1)C(=O)N1CCC[C@@H]1C(=O)N[C@H](Cc1ccccc1)C(=O)O,inactive
8,C[C@@H]1CN([C@H](C)CO)C(=O)c2cccc(NC(=O)c3cnccn3)c2O[C@@H]1CN(C)S(=O)(=O)c1ccc(Cl)cc1,inactive
9,O=C(C[C@H]1CC[C@H]2[C@@H](COC[C@@H](O)CN2C(=O)c2cnccn2)O1)NCc1ccc(Oc2ccccc2)cc1,inactive
10,C[C@@H]1CCCCO[C@@H](CN(C)Cc2ccc(C(F)(F)F)cc2)[C@@H](C)CN([C@H](C)CO)C(=O)c2cc(NC(=O)Cc3ccccc3)ccc2O1,active

# Test system: S. aureus RN4220
# Assay: growth inhibition call (relative growth <= 0.2)
# Settings: 50 µM
row,SMILES,growth inhibition call
1,C[C@@H]1CN([C@H](C)CO)C(=O)c2cccc(NS(=O)(=O)c3cccs3)c2O[C@H]1CN(C)Cc1ccncc1,inactive
2,O=C(C[C@@H]1CC[C@H](NC(=O)CN2CCOCC2)[C@H](CO)O1)NC1CCC1,inactive
3,O=C(N[C@@H]1C=C[C@@H](CC(=O)N2CCOCC2)O[C@@H]1CO)c1ccccn1,inactive
4,C[C@H](CO)N1C[C@H](C)[C@@H](CN(C)Cc2cccnc2)Oc2cc(C#CCN(C)C)ccc2S1(=O)=O,inactive
5,O=C(Nc1ccc(Cl)cc1C(=O)c1ccc(Cl)cc1)c1cc(Br)ccc1NS(=O)(=O)c1ccc(Cl)cc1,inactive
6,CC(/C=C/C(=O)NO)=C\c1ccccc1OCc1cn(-c2cccc(N(S(=O)(=O)c3ccc(C)cc3)S(=O)(=O)c3ccc(C)cc3)c2)nn1,inactive
7,COc1ccc(CN(C)C[C@@H]2OCCCC[C@H](C)Oc3ccc(NC(=O)c4ccccc4)cc3C(=O)N([C@@H](C)CO)C[C@@H]2C)cc1,inactive
8,CCCC(=O)Nc1ccc2c(c1)OC[C@@H](C)N(S(=O)(=O)c1cn(C)cn1)C[C@H](C)[C@@H](OC)CN(C)C2=O,inactive
9,COCC(=O)N(C)C[C@@H]1Oc2cc(-c3ccc(C#N)cc3)ccc2S(=O)(=O)N([C@H](C)CO)C[C@@H]1C,inactive
10,C[C@@H]1CN([C@@H](C)CO)C(=O)Cc2cc(NS(=O)(=O)c3ccc(F)cc3)ccc2O[C@@H]1CN(C)C(=O)Nc1cccc2ccccc12,inactive
11,C[C@H](CO)N1C[C@H](C)[C@@H](CN(C)Cc2ccc(-c3ccccc3)cc2)Oc2ncc(-c3cccnc3)cc2C1=O,inactive
12,C/C=C/c1cnc2c(c1)C(=O)N([C@H](C)CO)C[C@H](C)[C@@H](CN(C)S(=O)(=O)c1ccc(OC)cc1)O2,inactive
13,C[C@H]1CN([C@@H](C)CO)C(=O)c2cccc(NS(C)(=O)=O)c2O[C@H]1CN(C)C(=O)Nc1ccc(F)cc1,inactive
14,C[C@H](CO)N1C[C@H](C)[C@H](CN(C)Cc2ccc(C(=O)Nc3ccccc3N)cc2)Oc2ccc(NC(=O)Cn3cnnn3)cc2CC1=O,inactive
15,C/C=C/c1ccc2c(c1)O[C@H](CN(C)S(=O)(=O)c1ccccc1)[C@H](C)CN([C@@H](C)CO)S2(=O)=O,inactive
16,C[C@@H]1CN([C@@H](C)CO)C(=O)c2cc(NC(=O)c3ccccc3)ccc2O[C@@H](C)CCCCO[C@@H]1CN(C)C(=O)Cc1ccccc1,inactive
17,C[C@H](CO)N1C[C@H](C)[C@@H](CN(C)S(=O)(=O)c2cn(C)cn2)Oc2ccc(NS(=O)(=O)c3cccs3)cc2C1=O,inactive
18,CC[C@@H](C)NC(=O)Cn1cnc2c1c(=O)n(C)c(=O)n2C,inactive
19,C[C@@H]1CN([C@@H](C)CO)C(=O)c2c(c3ccccc3n2C)-c2ccccc2CO[C@H]1CN(C)C(=O)NC1CCCCC1,inactive
